Source: patent US20110117017A1, “PEPTIDES WITH PROPERTIES OF AN […] FOR THE ALPHA 1A […] RECEPTOR AND USES THEREOF” (priority 2006, published 2011)

Target: T1, alpha1a receptor (Homo sapiens, UniProt P35348)
T1 construct: made in house; host or cells: Pichia pastoris (membranes)
T1 sequence (P35348 1-466): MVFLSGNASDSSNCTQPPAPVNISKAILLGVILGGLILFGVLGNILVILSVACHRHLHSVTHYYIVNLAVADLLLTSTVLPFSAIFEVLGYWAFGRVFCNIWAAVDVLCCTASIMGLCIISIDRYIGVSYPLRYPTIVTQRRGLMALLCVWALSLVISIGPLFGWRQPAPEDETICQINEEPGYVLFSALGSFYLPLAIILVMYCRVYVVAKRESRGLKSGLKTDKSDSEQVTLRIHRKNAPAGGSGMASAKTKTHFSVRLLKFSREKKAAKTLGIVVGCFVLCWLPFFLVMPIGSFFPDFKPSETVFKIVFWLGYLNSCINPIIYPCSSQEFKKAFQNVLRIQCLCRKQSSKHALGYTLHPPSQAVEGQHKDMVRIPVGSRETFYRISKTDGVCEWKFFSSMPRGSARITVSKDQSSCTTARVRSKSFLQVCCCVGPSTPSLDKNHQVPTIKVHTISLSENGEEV
Test: displacement of 3H-prazosin binding to the alpha1a receptor (yeast membranes)
Details: reflects an allosteric modulation

SMILES: CC[C@H](C)[C@@H]1NC(=O)CNC(=O)[C@H](Cc2ccccc2)NC(=O)[C@H]([C@@H](C)CC)NC(=O)[C@H](CO)NC(=O)[C@H](CCCCN)NC(=O)[C@H](CO)NC(=O)[C@H]([C@@H](C)O)NC(=O)[C@H](C(C)C)NC(=O)[C@@H](NC(=O)[C@@H](NC(=O)[C@@H](N)CC(C)C)[C@@H](C)O)CSSC[C@@H]2NC(=O)[C@H](CC(C)C)NC(=O)[C@H](CC(N)=O)NC(=O)[C@H](CCC(N)=O)NC(=O)CNC(=O)[C@H](CC(=O)O)NC(=O)[C@@H]3CCCN3C(=O)[C@H](CSSC[C@@H](C(=O)N[C@@H](C)C(=O)N[C@@H](C)C(=O)N[C@H](C(=O)N[C@H]3CSSC[C@@H](C(=O)N[C@H]4CSSC[C@@H](C(=O)N[C@@H](CC(N)=O)C(=O)N[C@@H](CCC(=O)O)C(=O)O)NC(=O)[C@H](CCCCN)NC(=O)[C@H](CC(=O)O)NC(=O)[C@H]([C@@H](C)O)NC(=O)[C@H](CCCCN)NC4=O)NC(=O)[C@H](Cc4c[nH]cn4)NC(=O)[C@H]([C@@H](C)CC)NC(=O)[C@H](CO)NC(=O)[C@H](CC(=O)O)NC(=O)[C@H](Cc4ccc(O)cc4)NC(=O)[C@H](CC(N)=O)NC(=O)[C@H](CCC(=O)O)NC(=O)[C@@H]4CCCN4C(=O)[C@H]([C@@H](C)CC)NC(=O)[C@@H]4CCCN4C3=O)[C@@H](C)O)NC(=O)CNC(=O)[C@H](CCCNC(=N)N)NC(=O)[C@H]([C@@H](C)O)NC(=O)[C@H](CO)NC(=O)[C@H](CC(=O)O)NC(=O)[C@H](Cc3ccc(O)cc3)NC(=O)[C@H]([C@@H](C)CC)NC(=O)[C@H](CCCCN)NC(=O)[C@@H]3CCCN3C(=O)[C@H](C(C)C)NC(=O)[C@H](C(C)C)NC(=O)[C@H](Cc3ccc(O)cc3)NC(=O)[C@H](Cc3c[nH]cn3)NC(=O)[C@H](CCCNC(=N)N)NC(=O)[C@H](CCCNC(=N)N)NC(=O)[C@H](CCCCN)NC(=O)[C@H](Cc3ccccc3)NC2=O)NC(=O)[C@H](CC(=O)O)NC(=O)[C@H](CCC(=O)O)NC(=O)[C@H]([C@@H](C)O)NC(=O)[C@H]([C@@H](C)O)NC1=O [AdTx1]
- displacement of prazosin binding to the alpha1a adrenergic receptor (completeness): incomplete
